Measurements taken from the supplement of paper PMC3334620.
Whole data set: some 33,000 sequences, median “E-score (-0.5 to 0.5)” near -0.056, cut for the highest 2% near 0.38. The list shows a part of the results.

Biological target: Stb4 (UniProt P50104)
Assay: PBM E-score (8-mer binding enrichment) (E-score (-0.5 to 0.5)); higher = stronger / more preferred TF binding; most listed sequences are background and not binding sites
Conditions: protein concentration: 200 nM; construct: GST-DNA-binding domain
Procedure, shortened: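 Detection of bound protein used fluorescent anti-GST, with scans normalised by masliner. The proteins were GST-tagged yeast transcription factors applied at about 100-200 nM to universal all-10-mer Agilent arrays made double-stranded by primer extension. Each ungapped eight-base word, pooled with its reverse complement, was scored with an E-score from the Universal PBM Analysis Suite.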

Sequence	PBM E-score
ATATCATA	0.0484
ATGAGGCA	-0.224
CTTATAGC	-0.08
CATCCAAC	-0.212
AGGTACCC	-0.121
CAAACCGC	-0.00183
ACGCGCAA	0.0934
GTGACTCA	-0.292
GCAGTCAC	-0.084
ACCACCTG	-0.13
AATTGTTG	-0.19
CACTCATA	-0.149
CGATGCCA	-0.039
ACAGATTG	-0.0283
GATAAAGA	-0.0874
AAGGGCTC	-0.177
AGTACAGG	-0.0479
GCGAAAGC	-0.141
ATAATGTC	0.151
AGCATTTG	-0.0601
AAAGAAGG	-0.197
CCGTAACA	0.0635
CGGCTGGC	0.182
ACACGACG	-0.261
ATTTGTCA	-0.12

Sequence	PBM E-score
ATGTAAGA	-0.0823
ACTTCCAA	-0.19
ATGCACAT	-0.0577
CCGGGGAG	0.218
ACCAGGGA	-0.271
ACTAGAAT	-0.161
AACTATGT	-0.255
AATCAAGT	-0.169
CTACACAG	-0.315
GTAGGCAC	0.103
ACTTTCGG	0.416
AACGATTC	-0.0366
CAAGTCGG	0.267
ACCCTTCG	0.0471
ACTTCAAA	-0.103
CAAAGTAA	0.0795
AATTTGGA	-0.235
ACCAATGC	-0.00399
AGAATTGG	-0.161
CCGGAAAA	0.441
CGATATAA	0.0437
CCATCCGG	0.332
CGCGGTAC	0.312
TACATCCA	-0.202
TCATAAGA	-0.0249

Sequence	PBM E-score
ACCGAGTG	0.165
TAATTTCA	-0.0126
CCTGGGCC	-0.0612
AGGCTGCG	-0.162
CCAGTAAA	-0.0636
GACTCTAA	-0.095
AGTATTCA	-0.0817
TCATCCCA	-0.181
CCGGATAG	0.424
ACCAAAAG	-0.227
AATGCAGC	-0.19
GGGGCATA	-0.103
CGAAAAAG	0.151
ACGCCCGA	0.245
ACTTCCCA	-0.158
GCATCAAC	0.0461
AAAATTTA	-0.0837
CCTGTAAG	-0.283
CGACCGGA	0.31
GTGGAAGA	0.00601
TATTGAGA	-0.0948
ACCGGCGG	0.23
CCTTTAAG	-0.139
ACTGGCGG	0.12
GTAAGTCA	-0.109

Sequence	PBM E-score
CTAGGTGC	-0.0833
ACAGAGAA	-0.0546
CGGCCGAC	0.232
TCTGAACA	-0.137
CTATTAGA	-0.12
CCAATAGG	-0.217
ATGGTCTA	-0.224
GAAACGTC	0.0218
CTCGCATA	-0.176
ACTAGTCA	-0.19
AAGGGTTG	-0.175
AAGTTACC	0.226
CCGGCCCA	0.17
CTACGAAC	-0.233
CCCGATAC	0.287
GTGCCAAA	-0.0603
AAATATCA	-0.167
ATACAGAT	-0.185
AGTTATGA	-0.0314
ATCGAGTA	-0.151
CTTTGTGC	-0.138
TCCACTCA	-0.176
CCGCATTA	0.236
ATACCCTC	0.0255
AAAATAAA	-0.0248

Sequence	PBM E-score
GTGTGCGA	-0.083
CGGTCGAC	0.192
GTTGAGGA	-0.0286
TGATGCCA	-0.229
CGGTTGTA	0.098
ATTCAAAA	-0.0787
CGGCGAAC	0.248
AGAGTGAT	-0.165
GTTAATTA	0.153
CTTTAACA	0.0915
AGCCGGGA	0.323
ATGTCAGC	0.0161
ACGGTTCT	-0.182
ATGTTCTC	-0.107
CTACTTTC	0.0381
AACGGACG	0.0294
CGCGGCGA	0.135
AGCGAAGA	-0.208
AAGCTCCG	0.382
CCCGTTAC	0.161
TCGTCAAA	-0.0816
AAACACAG	0.0157
CTACGGTA	0.121
ACGAACTA	-0.194
CTCTTCAA	-0.101

Sequence	PBM E-score
AAACTGAC	0.0164
GATTTTCC	0.166
ACTAATAG	-0.0229
GTACTGTA	-0.171
ATGGCGAC	-0.0739
TCGGTCCA	0.2
CTTGTTAA	0.0614
AACTGCCT	-0.0357
CGTACGAA	0.0522
ATCCCCTC	-0.134
AAACTGTC	-0.164
CGGGGTGC	0.137
GAAGAAGA	0.0699
CTGCTGTA	-0.058
GAGATGTA	0.126
CCTGCTTA	-0.146
AAACTGCT	-0.213
CAGTTAAC	0.0713
GCTGCCCC	-0.0108
AGGCATGG	-0.023
ACCCATAA	0.088
AGATCGAG	-0.138
GCCCCCTA	-0.156
AGTGCCTG	-0.0659
AGCATGCC	-0.017

Sequence	PBM E-score
GGAAGTCA	0.159
CACGCTAA	-0.069
CGCCCGCA	0.103
AATGCTTA	-0.283
AAACGAGA	-0.0143
GGGGTCAA	-0.014
ACTTTCTC	0.0197
GTCGATCA	-0.154
GGTTTCAA	0.0851
GCCCGGTA	0.263
ATTCGTTA	-0.121
AATCTTGA	-0.242
ATTTTCCG	0.424
CGTAAATA	0.059
ATTGAGCG	-0.105
CGGACTGC	0.0974
AATGCATG	-0.0311
AAGCCATG	-0.117
ATGTTAAC	-0.0494
AGTCTCAG	-0.223
ATCTACTA	-0.0028
ACTGTTTA	-0.241
